# Results as given in the supplement of paper PMC8728848.
# This is one part of the list.
# Key:
# Test in all cases: glycan array binding signal (z-score within array); higher = stronger binding
# Details in all cases: glycan notation: IUPAC condensed, linker removed
# [1] = molecular target: Gal3S(b1-4)Glc
# Summary of the method: (§1)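 The Consortium for Functional Glycomics database supplied 3228 glycan arrays, of which those lacking an available protein sequence were dropped. The binding signal, a within-array Z-score, was averaged across arrays of the same protein sequence and across linkers. Negative scores can be read as non-binding.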
# [2] = molecular target: Gal3S(b1-4)Glc6S
# Summary of the method: as §1
# [3] = molecular target: Gal3S(b1-4)GlcNAc
# Summary of the method: as §1
# [4] = molecular target: Gal3S(b1-4)[Fuc(a1-3)]Glc6S
# Summary of the method: as §1
# [5] = molecular target: Gal3S(b1-4)[Fuc(a1-3)]GlcNAc
# Summary of the method: as §1
# [6] = molecular target: Gal3S(b1-4)[Fuc(a1-3)]GlcNAc6S
# Summary of the method: as §1
# [7] = molecular target: Gal3S4S(b1-4)GlcNAc
# Summary of the method: as §1
# [8] = molecular target: Gal3S6S(b1-4)GlcNAc
# Summary of the method: as §1
# [9] = molecular target: Gal3S6S(b1-4)GlcNAc6S
# Summary of the method: as §1
# [10] = molecular target: Gal4S(b1-4)GlcNAc
# Summary of the method: as §1
# [11] = molecular target: Gal4S6S(b1-4)GlcNAc
# Summary of the method: as §1
# [12] = molecular target: Gal6P(b1-4)GlcNAc
# Summary of the method: as §1
# [13] = molecular target: Gal6S(b1-3)GlcNAc
# Summary of the method: as §1
# [14] = molecular target: Gal6S(b1-3)GlcNAc6S
# Summary of the method: as §1
# [15] = molecular target: Gal6S(b1-4)Glc
# Summary of the method: as §1
# [16] = molecular target: Gal6S(b1-4)Glc6S
# Summary of the method: as §1
# [17] = molecular target: Gal6S(b1-4)GlcNAc
# Summary of the method: as §1
# [18] = molecular target: Gal6S(b1-4)GlcNAc6S
# Summary of the method: as §1
# [19] = molecular target: GalNAc(a1-3)Gal
# Summary of the method: as §1
# [20] = molecular target: GalNAc(a1-3)GalNAc
# Summary of the method: as §1
# [21] = molecular target: GalNAc(a1-3)GalNAc(b1-3)Gal(a1-4)Gal(b1-4)Glc
# Summary of the method: as §1
# [22] = molecular target: GalNAc(a1-3)GalNAc(b1-3)Gal(a1-4)Gal(b1-4)GlcNAc
# Summary of the method: as §1
# [23] = molecular target: GalNAc(b1-3)Gal
# Summary of the method: as §1
# [24] = molecular target: GalNAc(b1-3)Gal(a1-4)Gal(b1-4)GlcNAc
# Summary of the method: as §1
# [25] = molecular target: GalNAc(b1-3)Gal(a1-4)Gal(b1-4)GlcNAc(b1-3)Gal(b1-4)Glc
# Summary of the method: as §1
# [26] = molecular target: GalNAc(b1-3)Gal(a1-6)Gal(b1-4)Glc
# Summary of the method: as §1
# [27] = molecular target: GalNAc(b1-3)GalNAc
# Summary of the method: as §1
# [28] = molecular target: GalNAc(b1-3)GlcNAc
# Summary of the method: as §1
# [29] = molecular target: GalNAc(b1-4)Gal(b1-4)Glc
# Summary of the method: as §1
# [30] = molecular target: GalNAc(b1-4)GlcNAc
# Summary of the method: as §1
# [31] = molecular target: GalNAc(b1-4)GlcNAc(b1-2)Man
# Summary of the method: as §1
# [32] = molecular target: GalNAc(b1-4)GlcNAc(b1-2)Man(a1-3)[GalNAc(b1-4)GlcNAc(b1-2)Man(a1-6)]Man(b1-4)GlcNAc(b1-4)GlcNAc
# Summary of the method: as §1
# [33] = molecular target: GalNAc(b1-4)GlcNAc(b1-3)GalNAc(b1-4)GlcNAc
# Summary of the method: as §1
# [34] = molecular target: GalNAc(b1-4)GlcNAc6S
# Summary of the method: as §1
# [35] = molecular target: GalNAc(b1-6)GalNAc
# Summary of the method: as §1
# [36] = molecular target: GalNAc3S(b1-4)GlcNAc
# Summary of the method: as §1
# [37] = molecular target: GalNAc3S(b1-4)GlcNAc3S
# Summary of the method: as §1
# [38] = molecular target: GalNAc3S(b1-4)[Fuc(a1-3)]GlcNAc
# Summary of the method: as §1
# [39] = molecular target: GalNAc4S6S(b1-4)GlcNAc
# Summary of the method: as §1
# [40] = molecular target: GalNAc6S(b1-4)GlcNAc
# Summary of the method: as §1
# [41] = molecular target: Glc(a1-4)Glc
# Summary of the method: as §1
# [42] = molecular target: Glc(a1-4)Glc(a1-4)Glc(a1-4)Glc
# Summary of the method: as §1
# [43] = molecular target: Glc(a1-6)Glc(a1-6)Glc
# Summary of the method: as §1
# [44] = molecular target: Glc(a1-6)Glc(a1-6)Glc(a1-6)Glc
# Summary of the method: as §1
# [45] = molecular target: Glc(b1-4)Glc
# Summary of the method: as §1
binder,measurement,setting,value
PX9961J-bvu-499-24-499 (Bacteroides vulgatus) (protein) LNTDPSTAVPSDDAIKNIDDAQVALNGIYRLASAHSYYGDNYLYYADCRGEDVQARINKGAGRRVSPYYFFDVTADDNFNITLVWNQPYKVIHQANSLIEKLDAGNAGNARPEEVARIKSEALAMRGLALFDLTRLFGMPYTLDNGASLGVPIEIQTTLEDHAPERNTVAQCYEQVLKDLNDALGGLTKEKHDAYMNYWSVKALLSRVYLYMNDNENALKCAEEVINDNGGIYRLFTHDEYPSVWGKDFNSESLFEFYFTMSEPSGGSGGEGAPMVYADNVKDWNNLILTKAYLDLLNEDPEDVRHVFPHLPENAVADTLPVAAKGQPKYLIKYPGKSGSVTDAVSTVNPQDNDLCILRLSEVYLNAAEAAFKIGNTEKALTYLNAIVTRANPAKSVTSADLSLERILKERRKELVGEGHAFFDYMRNGKSVDRSGGWHLTMPEDARVIAPSDPRVALPIPQTEIDANPNIVQNPR,glycan array binding signal (z-score),[1],-0.605
same,glycan array binding signal (z-score),[2],0.048
same,glycan array binding signal (z-score),[3],-0.391
same,glycan array binding signal (z-score),[4],-0.142
same,glycan array binding signal (z-score),[5],0.069
same,glycan array binding signal (z-score),[6],0.483
same,glycan array binding signal (z-score),[7],-0.338
same,glycan array binding signal (z-score),[8],0.184
same,glycan array binding signal (z-score),[9],0.007
same,glycan array binding signal (z-score),[10],0.055
same,glycan array binding signal (z-score),[11],0.387
same,glycan array binding signal (z-score),[12],-0.613
same,glycan array binding signal (z-score),[13],-0.703
same,glycan array binding signal (z-score),[14],-0.11
same,glycan array binding signal (z-score),[15],0.033
same,glycan array binding signal (z-score),[16],-0.108
same,glycan array binding signal (z-score),[17],0.068
same,glycan array binding signal (z-score),[18],-0.714
same,glycan array binding signal (z-score),[19],2.34
same,glycan array binding signal (z-score),[20],-0.088
same,glycan array binding signal (z-score),[21],0.279
same,glycan array binding signal (z-score),[22],-0.437
same,glycan array binding signal (z-score),[23],-0.536
same,glycan array binding signal (z-score),[24],-0.52
same,glycan array binding signal (z-score),[25],-0.31
same,glycan array binding signal (z-score),[26],0.002
same,glycan array binding signal (z-score),[27],-0.061
same,glycan array binding signal (z-score),[28],0.212
same,glycan array binding signal (z-score),[29],0.463
same,glycan array binding signal (z-score),[30],-0.478
same,glycan array binding signal (z-score),[31],-0.661
same,glycan array binding signal (z-score),[32],-0.36
same,glycan array binding signal (z-score),[33],0.269
same,glycan array binding signal (z-score),[34],1.13
same,glycan array binding signal (z-score),[35],-0.45
same,glycan array binding signal (z-score),[36],0.029
same,glycan array binding signal (z-score),[37],-0.378
same,glycan array binding signal (z-score),[38],-0.545
same,glycan array binding signal (z-score),[39],-0.218
same,glycan array binding signal (z-score),[40],2.75
same,glycan array binding signal (z-score),[41],-0.454
same,glycan array binding signal (z-score),[42],0.411
same,glycan array binding signal (z-score),[43],-0.436
same,glycan array binding signal (z-score),[44],-0.173
same,glycan array binding signal (z-score),[45],-0.447
